Measurements published in patent publication US8933202B2, “AXL antibodies” (U3 Pharma GmbH, priority 2007, dated 2015).
Blank lines part the entries; values can stand above or below the molecule they belong to.

Tests used:
AXL [1] = biological target: T1, AXL (Homo sapiens, UniProt P30530); test: Axl phosphorylation ELISA, rat versus chimeric antibody; format: cell-based; parameters: endogenous in cells; host or cells: CaSki cervical cancer cells
T1 sequence (P30530 26-894): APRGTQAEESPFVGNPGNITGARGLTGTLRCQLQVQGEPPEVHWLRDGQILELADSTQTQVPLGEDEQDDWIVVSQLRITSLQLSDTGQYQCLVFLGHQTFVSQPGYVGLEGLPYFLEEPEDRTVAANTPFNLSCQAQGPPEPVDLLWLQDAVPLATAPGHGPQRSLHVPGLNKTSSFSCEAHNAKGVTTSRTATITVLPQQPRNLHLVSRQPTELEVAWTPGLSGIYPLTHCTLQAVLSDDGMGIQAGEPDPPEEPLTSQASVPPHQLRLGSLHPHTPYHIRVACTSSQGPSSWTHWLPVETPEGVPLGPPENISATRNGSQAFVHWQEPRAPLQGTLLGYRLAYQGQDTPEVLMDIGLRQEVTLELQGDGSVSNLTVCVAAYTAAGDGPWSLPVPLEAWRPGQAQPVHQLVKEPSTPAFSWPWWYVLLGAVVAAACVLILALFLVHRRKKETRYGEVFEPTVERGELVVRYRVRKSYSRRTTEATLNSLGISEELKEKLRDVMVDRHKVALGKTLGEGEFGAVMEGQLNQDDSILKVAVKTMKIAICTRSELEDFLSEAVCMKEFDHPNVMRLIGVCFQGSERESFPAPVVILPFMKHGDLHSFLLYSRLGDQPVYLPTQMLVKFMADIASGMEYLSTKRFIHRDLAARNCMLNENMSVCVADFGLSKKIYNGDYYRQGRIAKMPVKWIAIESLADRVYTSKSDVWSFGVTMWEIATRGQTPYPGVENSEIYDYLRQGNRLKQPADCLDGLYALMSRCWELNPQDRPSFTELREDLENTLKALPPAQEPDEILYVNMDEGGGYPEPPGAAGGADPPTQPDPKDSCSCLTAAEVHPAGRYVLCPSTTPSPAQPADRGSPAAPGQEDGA
Procedure: In order to investigate whether the rat anti-Axl antibodies of the invention and the corresponding chimeric anti-Axl antibodies of the invention were able to inhibit ligand Gas6-mediated Axl activation in vitro to similar extent, ELISA experiments on CaSki cervical cancer cells were performed. Gas6-mediated Axl activation was thereby detected by increased receptor tyrosine phosphorylation. In brief, on day 1, 3×10^4 cells per well were seeded in normal growth medium in flat-bottom 96 well plates. The next day, growth medium was replaced by serum-free medium to starve cells over night for 24 h. Also over night, black Maxi-Sorp 96 well plates (Nunc) were coated with mouse anti-phospho-tyrosine antibody 4G10 at 2 μg/ml PBS and 4° C. On day 3, the 4G10 antibody solution was removed and Maxi-Sorp wells were blocked with PBS, 0.5% BSA for at lest 4 h at room temperature. In parallel, cells were pre-incubated with 50 ng/ml, 100 ng/ml, 300 ng/ml, 750 ng/ml, 1 μg/ml, and 10 μg/ml of rat anti-Axl antibody 11B7 or chimeric anti-Axl antibody ch11B7 for 1 h at 37° C. and subsequently treated with or without 400 ng/ml Gas6 (R&D Systems) for 10 min at 37° C. […] Using a Victor plate reader (Perkin Elmer), the fluorescence of each well was collected at an excitation wavelength of 430 nm and an emission wavelength of 580 nm.

AXL [2] = biological target: T1, AXL; test: AXL receptor tyrosine phosphorylation ELISA; format: cell-based; parameters: expressed in transfected cells; host or cells: NIH3T3-AXL cl.7 (pLXSN-hAXL) and NCI-H292 lung cancer cells (endogenous AXL); conditions: 10 μg/ml antibody, 400 ng/ml Gas6; NIH3T3-AXL cl.7 fibroblasts and NCI-H292 lung cancer cells
Procedure: ELISA experiments were performed in order to investigate whether the rat anti-AXL antibodies of the invention are able to block ligand Gash-mediated activation of AXL. Gas6-mediated AXL activation was detected by increased receptor tyrosine phosphorylation. In brief, on day 1, 3×10^4 cells per well were seeded in normal growth medium in flat-bottom 96 well plates. The next day, growth medium was replaced by serum-free medium to starve cells over night for 24 h. Also over night, black Maxi-Sorp 96 well plates (Nunc) were coated with mouse anti-phospho-tyrosine antibody 4G10 at 2 μg/ml PBS and 4° C. On day 3, the 4G10 antibody solution was removed and Maxi-Sorp wells were blocked with PBS, 0.5% BSA for at lest 4 h at room temperature. […] Medium was then flicked out and cells were lysed in lysis buffer (50 mM HEPES, pH 7.5, 150 mM NaCl, 1 mM EDTA, 10% glycerine, and 1% Triton X-100) supplemented with phosphatase and protease inhibitors (10 mM Na4P2O7, 1 mM phenylmethylsulfonyl fluoride, 1 mM orthovanadate, 1 mM NaF, and 0.5% aprotinin) for 30 min on ice. […] Using a Victor plate reader (Perkin Elmer), the fluorescence of each well was collected at an excitation wavelength of 430 nm and an emission wavelength of 580 nm.

- ligand-induced Axl activation in melanoma cell line C-8161 (AXL [1]; same experimental settings, C-8161): Comparable effects
B1: ch11B7: chimeric anti-AXL antibody, derivative of rat 11B7 (antibody)
heavy: EVQLQESGPGLVKPSQSLSLTCSVTGYSITSNYWGWIRKFPGDKMEWMGYITYSGSTSYNPSLKSRISITRDTSKNQFFLQLNSVTSEDTATYYCAITTFYYWGQGVMVTVSS[left out - human IgG1 constant region]
light: DIQMTQAPSSLPASLGDRVTITCRASQDIGNYLRWFQQKPGKSPRLMISGATNLAAGVPSRFSGSRSGSDYSLTISSLESEDMADYYCLQSKESPWTFGGGTKLELKRTVAAPSVFIFPPSDEQLKSGTASVVCLLNNFYPREAKVQWKVDNALQSGNSQESVTEQDSKDSTYSLSSTLTLSKADYEKHKVYACEVTHQGLSSPVTKSFNRGEC
- ligand-induced Axl activation (relative Axl phosphorylation), concentration-dependent (AXL [1]; 50 ng/ml to 10 μg/ml antibody, 400 ng/ml Gas6, CaSki cervical cancer cells): able to block ligand-induced activation of the receptor tyrosine kinase Axl to similar extent

B2: 11D5: antagonistic rat anti-AXL monoclonal antibody, rat IgG2a (antibody)
heavy: EVQLQESGPGLVKPSQSLSLTCSVTGYSITSNYWGWIRKFPGNKMEWIGHITNSGNTTYNPSLKSRISISRDTSRNQFFLQLNSVTTEDTATYYCAKGAFDYWGQGVMVTVSS[left out - human IgG1 constant region]
light: DIQMTQSPSSMSTSLGDRVTITCRASQDIGNYLSWFQQKVGKSPRRMIYGAIKLAVGVPSRFSGSRSGSDYSLTISSLESEDMAIYYCLQYIQFPLTFGSGTKLELKRTVAAPSVFIFPPSDEQLKSGTASVVCLLNNFYPREAKVQWKVDNALQSGNSQESVTEQDSKDSTYSLSSTLTLSKADYEKHKVYACEVTHQGLSSPVTKSFNRGEC
modifications: 11D5 HC gamma1; 11D5 LC kappa
notes: antagonistic rat anti-AXL monoclonal antibody, rat IgG2a
- ligand-mediated AXL activation (phosphorylation) (AXL [2]): able to block or reduce ligand-mediated AXL activation
